Laboratory results: article PMC7409549, “A time-resolved interaction analysis of Bem1 reconstructs the flow of Cdc42 during polar growth” (Life Science Alliance, 2020)
Substitutions are numbered along the chain they refer to. Names and notes keep the numbering of the source. These are yes or no findings as the source states them, for the method shown. Binding seen in cells or lysates may run through a third protein. Some entries that bind do so weakly or less than the wild type. For some assays here: Tags and fused reporters may be left off the sequences shown.

T1: Bem1-mCherry-Cub-RGFP (S. cerevisiae) (UniProt P29366)
T1 sequence: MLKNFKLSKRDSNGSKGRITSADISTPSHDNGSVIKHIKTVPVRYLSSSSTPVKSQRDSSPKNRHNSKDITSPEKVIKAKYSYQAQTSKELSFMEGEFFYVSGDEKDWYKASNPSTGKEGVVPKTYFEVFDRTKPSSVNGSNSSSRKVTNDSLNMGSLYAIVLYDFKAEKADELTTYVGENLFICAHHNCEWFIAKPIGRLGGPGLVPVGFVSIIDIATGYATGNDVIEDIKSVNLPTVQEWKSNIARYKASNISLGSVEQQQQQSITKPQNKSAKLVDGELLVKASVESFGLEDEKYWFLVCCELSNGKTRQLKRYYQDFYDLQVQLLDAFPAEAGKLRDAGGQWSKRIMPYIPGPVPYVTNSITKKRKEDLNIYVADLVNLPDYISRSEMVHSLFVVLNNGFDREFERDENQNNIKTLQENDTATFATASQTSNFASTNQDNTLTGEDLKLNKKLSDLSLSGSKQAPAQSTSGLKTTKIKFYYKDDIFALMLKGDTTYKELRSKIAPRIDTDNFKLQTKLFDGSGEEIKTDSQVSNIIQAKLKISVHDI

T2: Bem1-Cub-RUra3 (S. cerevisiae) (UniProt P29366)
T2 sequence: T1 sequence

T3: Bem1WK-Cub-RUra3 (S. cerevisiae) (UniProt P29366)
T3 sequence: T1 sequence with W192K

T4: GST-Nbp2 (S. cerevisiae) (UniProt Q12163)
T4 sequence: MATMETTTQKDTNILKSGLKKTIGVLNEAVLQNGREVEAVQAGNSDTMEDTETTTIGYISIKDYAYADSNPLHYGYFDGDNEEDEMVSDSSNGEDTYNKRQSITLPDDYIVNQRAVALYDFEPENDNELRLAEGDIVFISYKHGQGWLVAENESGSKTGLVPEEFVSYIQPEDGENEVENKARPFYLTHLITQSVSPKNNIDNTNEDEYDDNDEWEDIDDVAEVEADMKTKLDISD

B1: Nub-Ste20 (protein, UniProt Q03497 1-939)
chain: MSNDPSAVSELPDKDSLDNGISNDNERAMGGNGDGGDGLRLPRTTGTLNVNALQKGTNAAHEAGGYKSMDPAKNAETTNDDDNNVVSLDDPIQFTRVSSSSVISGMSSSMSPHSNIDETKSLEAVTPNINTSNITPDHSADNTFSTINASESDHQFNDTLLSKLSLTDSTETIENNATVKHQQPVASSTVNSNKSSTDIRRATPVSTPVISKPSMTTTPRQINSASHSLSNPKHKQHKPKVKPSKPEAKSKPVSVKKSFPSKNPLKNSSPPKKQTEKSYYSSSSKKRKSGSNSGTLRMKDVFTSFVQNIKRNSQDDKRASSSSNNSSSSSITTALRISTPYNAKHIHHVGVDSKTGEYTGLPEEWEKLLTSSGISKREQQQNMQAVMDIVKFYQDVTETNGEDKMFKTFNTTTGLPGSPQVSTPPANSFNKFPPSTSDSHNYGSRTGTPMSNHVMSPTLNTDSSSANGKFIPSRPAPKPPSSASASAPIIKSPVMNSAANVSPLKQTHAPTTPNRTSPNRSSISRNATLKKEEQPLPPIPPTKSKTSPIISTAHTPQQVAQSPKAPAQETVTTPTSKPAQARSLSKELNEKKREERERRKKQLYAKLNEICSDGDPSTKYANLVKIGQGASGGVYTAYEIGTNVSVAIKQMNLEKQPKKELIINEILVMKGSKHPNIVNFIDSYVLKGDLWVIMEYMEGGSLTDVVTHCILTEGQIGAVCRETLSGLEFLHSKGVLHRDIKSDNILLSMEGDIKLTDFGFCAQINELNLKRTTMVGTPYWMAPEVVSRKEYGPKVDIWSLGIMIIEMIEGEPPYLNETPLRALYLIATNGTPKLKEPENLSSSLKKFLDWCLCVEPEDRASATELLHDEYITEIAEANSSLAPLVKLARLKKVAENMDADEDNDDDNDNEHINKTNNCDDNNDSKETVNLDVTEDDKQK
B2: Nub-Cla4 (protein, UniProt P48562 1-842)
chain: MSLSAAANKISDNDFQNIGPAPRPPSSNSQGRTCYNQTQPITKLMSQLDLTSASHLGTSTSKKKSGWVSYKDDGILSFIWQKRYLMLHDSYVALYKNDKQNDDAILKIPLTSIISVSRTQLKQYCFELVRCSDRNSVSSGSSSSLNVSSDSNSKKSIYIATKTESDLHSWLDAIFAKCPLLSGVSSPTNFTHKVHVGFDPETGSFVGMPTNWEKLLKHSRITGEDWNNNSAAVIQVLQFYQEYNGAGNPTNTLDKPQSGETSSSQKSLPNSYNDNKLRNNSVNSKSSSGVSSSMVSQRKTSQPPNTKSPVSLGSGSLPPINTKLPTSQSNIPRHLQNVPNQQYPKMRNGHSPTNGQFPRGPMHPNNSQRSLQQQQQQQQQQKQQHQQYPYHHQGPSPSPSPSPSPLNPYRPHHNMINPYSKQPQSPLSSQSTQNQAIPRYAQNSSPTAAHFQPQRTAPKPPISAPRAPYPSNQNATSNTHVQPVAPKNDQSTPQTMRQAPKRPDADVAQPGGVAKPKKPARPTMSTAEIMSKLKKVTVNADPSQCFKVIEKAGQGASGSVYLAERTHIPTESNMIELINNDIDEPHVGDKVAIKQMVLSKQPRKELIVNEILVMKDSRHKNIVNFLEAYLRTDDDLWVVMEFMEGGSLTDIIENSPTNDNSHSPLTEPQIAYIVRETCQGLKFLHDKHIIHRDIKSDNVLLDTRARVKITDFGFCARLTDKRSKRATMVGTPYWMAPEVVKQREYDEKIDVWSLGIMTIEMLEGEPPYLNEDPLKALYLIATNGTPKLKHPESLSLEIKRFLSVCLCVDVRYRASTEELLHHGFFNMACDPKDLTSLLEWKE
B3: Nub-Cdc24 (protein, UniProt P11433 1-854)
chain: MAIQTRFASGTSLSDLKPKPSATSISIPMQNVMNKPVTEQDSLFHICANIRKRLEVLPQLKPFLQLAYQSSEVLSERQSLLLSQKQHQELLKSNGANRDSSDLAPTLRSSSISTATSLMSMEGISYTNSNPSATPNMEDTLLTFSMGILPITMDCDPVTQLSQLFQQGAPLCILFNSVKPQFKLPVIASDDLKVCKKSIYDFILGCKKHFAFNDEELFTISDVFANSTSQLVKVLEVVETLMNSSPTIFPSKSKTQQIMNAENQHRHQPQQSSKKHNEYVKIIKEFVATERKYVHDLEILDKYRQQLLDSNLITSEELYMLFPNLGDAIDFQRRFLISLEINALVEPSKQRIGALFMHSKHFFKLYEPWSIGQNAAIEFLSSTLHKMRVDESQRFIINNKLELQSFLYKPVQRLCRYPLLVKELLAESSDDNNTKELEAALDISKNIARSINENQRRTENHQVVKKLYGRVVNWKGYRISKFGELLYFDKVFISTTNSSSEPEREFEVYLFEKIIILFSEVVTKKSASSLILKKKSSTSASISASNITDNNGSPHHSYHKRHSNSSSSNNIHLSSSSAAAIIHSSTNSSDNNSNNSSSSSLFKLSANEPKLDLRGRIMIMNLNQIIPQNNRSLNITWESIKEQGNFLLKFKNEETRDNWSSCLQQLIHDLKNEQFKARHHSSTSTTSSTAKSSSMMSPTTTMNTPNHHNSRQTHDSMASFSSSHMKRVSDVLPKRRTTSSSFESEIKSISENFKNSIPESSILFRISYNNNSNNTSSSEIFTLLVEKVWNFDDLIMAINSKISNTHNNNISPITKIKYQDEDGDFVVLGSDEDWNVAKEMLAENNEKFLNIRLY
B4: Cla4_(1-471F15A AA/PP F451L) 9xMyc (domain or fragment, UniProt P48562 1-471)
chain: MSLSAAANKISDNDAQNIGPAARPASSNSQGRTCYNQTQPITKLMSQLDLTSASHLGTSTSKKKSGWVSYKDDGILSFIWQKRYLMLHDSYVALYKNDKQNDDAILKIPLTSIISVSRTQLKQYCFELVRCSDRNSVSSGSSSSLNVSSDSNSKKSIYIATKTESDLHSWLDAIFAKCPLLSGVSSPTNFTHKVHVGFDPETGSFVGMPTNWEKLLKHSRITGEDWNNNSAAVIQVLQFYQEYNGAGNPTNTLDKPQSGETSSSQKSLPNSYNDNKLRNNSVNSKSSSGVSSSMVSQRKTSQPPNTKSPVSLGSGSLPPINTKLPTSQSNIPRHLQNVPNQQYPKMRNGHSPTNGQFPRGPMHPNNSQRSLQQQQQQQQQQKQQHQQYPYHHQGPSPSPSPSPSPLNPYRPHHNMINPYSKQPQSPLSSQSTQNQAIPRYAQNSSPTAAHLQPQRTAPKPPISAPRAPYPS
B5: Ste20_(F470L P475T) 9xMyc fusion (protein, UniProt Q03497 1-939)
chain: B1 chain with F470L, P475T

Tests used:
[1] = molecular target: T1, Bem1-mCherry-Cub-RGFP (S. cerevisiae); assay: split reporter; SPLIFF as a9, measured at the cell front during bud site assembly and bud growth (PCDII)
[2] = molecular target: T1, Bem1-mCherry-Cub-RGFP (S. cerevisiae); assay: split reporter; SPLIFF as a9, measured at the bud neck from completion of acto-myosin ring contraction until abscission (PCDIII)
[3] = molecular target: T2, Bem1-Cub-RUra3 (S. cerevisiae); assay: split reporter; split-ubiquitin (Split-Ub): a-cells with a Cub-RUra3 (CRU) fusion mated with α-cells with Nub fusions (P_CUP1), diploids as quadruplets on SD medium with 1 mg/ml 5-FOA and copper; growth = interaction; detects direct and indirect interactions
[4] = molecular target: T3, Bem1WK-Cub-RUra3 (S. cerevisiae); assay: as above
[5] = molecular target: T1, Bem1-mCherry-Cub-RGFP (S. cerevisiae); assay: split reporter; SPLIFF (split-ubiquitin with mCherry-Cub-RGFP, CCG): a-cells with the CCG fusion mated with α-cells with Nub-HA fusions; conversion of CCG to CC measured by time-lapse microscopy at the site of cell fusion (PCDI); a significant positive slope = interaction
GST-Nbp2 (S. cerevisiae) = molecular target: T4, GST-Nbp2 (S. cerevisiae); assay: pull-down; GST fusions immobilised on glutathione sepharose beads from E. coli extracts, incubated 1 h at 4°C with yeast cell extracts; glutathione eluates blotted (anti-GFP or anti-Myc); only the target purified

| Binder | binding [1] | binding [2] | binding [3] | binding [4] | binding [5] | binding (GST-Nbp2 (S. cerevisiae)) |
| --- | --- | --- | --- | --- | --- | --- |
| B1 | binds | binds | binds | no binding | binds | – |
| B2 | binds | no binding (condition: during PCDIII (abscission)) | binds | no binding | binds | – |
| B3 | binds | binds | binds | binds | binds | – |
| B4 | – | – | – | – | – | binds |
| B5 | – | – | – | – | – | binds |
